The supplement of paper PMC12217912
Some of the results follow. The full chains were built here from the parent and the listed change. Values near 0.05 are background.

B1: TEV protease; numbered along this chain (parent)
chain: MGESLFKGPRDYNPISSSICHLTNESDGHTTSLYGIGFGPFIITNKHLFRRNNGTLVVQSLHGVFKVKDTTTLQQHLVDGRDMIIIRMPKDFPPFPQKLKFREPQREERICLVTTNFQTKSMSSMVSDTSCTFPSGDGIFWKHWIQTKDGQCGSPLVSTRDGFIVGIHSASNFTNTNNYFTSVPKNFMELLTNQEAQQWVSGWRLNADSVLWGGHKVFMVKPEEPFQPVKEATQL

Variants of: B1
Assay: raw area under fraction-flipped curve 0-4 h after induction (AUC4h, not background-subtracted), DNA-recorder readout of cleavage of the substrate (dimensionless); higher = more cleavage of the substrate by the protease variant
Conditions: temperature: 34 °C; time window: 0-4 h after rhamnose induction
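Further: Bxb1 expression induced with 0.2% (w/v) L-rhamnose at OD600 near 0.5, cultures sampled hourly, flipped fraction per protease–substrate barcode pair counted by paired-end Illumina sequencing.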

Variant: MGESLFKGPRDYNPISSSICHLTNESDGHTTSLYGIGFGPFIITNKHLFRRNNGTLVVQSLHGVFKVKDTTTLQQHLVDGRDMIIIRMPKDFPPFPQKLKFREPQREERICLVTTNFQTKSMSSMVSDTSCTFPSGDGIFWKHWIQTKDGQCGSPLVSTRDGFIVGIHSASNFTNTNNYFTSVPKNFMELLSNQEAQQWVSGWRLNADSVLWGGHKVFMVKPEEPFQPVKEATQL [T192S]
- area with substrate CNLYFQS: 0.0876
- area with substrate FNLYFQS: 0.0695
- area with substrate GNLYFQS: 0.0629
- area with substrate HNLYFQS: 0.0384
- area with substrate INLYFQS: 0.0628
- area with substrate LNLYFQS: 0.0723
- area with substrate NNLYFQS: 0.0696
- area with substrate PNLYFQS: 0.0761
- area with substrate SNLYFQS: 0.0662
- area with substrate TNLYFQS: 0.0712
- area with substrate WNLYFQS: 0.0515
- area with substrate YNLYFQS: 0.0722

Variant: MGESLFKGPRDYNPISSSICHLTNESDGHTTSLYGIGFGPFIITNKHLFRRNNGTLVVQSLHGVFKVKDTTTLQQHLVDGRDMIIIRMPKDFPPFPQKLKFREPQREERICLVTTNFQTKSMSSMVSDTSCTFPSGDGIFWKHWIQTKDGQCGSPLVSTRDGFIVGIHSASNFTNTNNYFTSVPKNFMELLTNQEAQQGVSGWRLNADSVLWGGHKVFMVKPEEPFQPVKEATQL [W199G]
- area with substrate CNLYFQS: 0.0536
- area with substrate DNLYFQS: 0.0547
- area with substrate FNLYFQS: 0.0523
- area with substrate GNLYFQS: 0.0575
- area with substrate HNLYFQS: 0.0671
- area with substrate INLYFQS: 0.0476
- area with substrate KNLYFQS: 0.0743
- area with substrate LNLYFQS: 0.0464
- area with substrate MNLYFQS: 0.0815
- area with substrate NNLYFQS: 0.0712
- area with substrate PNLYFQS: 0.0622
- area with substrate RNLYFQS: 0.0667
- area with substrate SNLYFQS: 0.0638
- area with substrate TNLYFQS: 0.062
- area with substrate WNLYFQS: 0.0649
- area with substrate YNLYFQS: 0.0484

Variant: MGESLFKGPRDYNPISSSICHLTNESDGHTTSLYGIGFGPFIITNKHLFRRNNGTLVVQSLHGVFKVKDTTTLQQHLVDGRDMIIIRMPKDFPPFPQKLKFREPQREERICLVTTNFQTKSMSSMVSDTSCTFPSGDGIFWKHWIQTKDGQCGSPLVSTRDGFIVGIHSASNFTNTNNYFTSVPKNFMELLTNQEAQQWCSGWRLNADSVLWGGHKVFMVKPEEPFQPVKEATQL [V200C]
- area with substrate CNLYFQS: 0.0682
- area with substrate DNLYFQS: 0.0555
- area with substrate FNLYFQS: 0.0631
- area with substrate GNLYFQS: 0.0276
- area with substrate HNLYFQS: 0.0603
- area with substrate INLYFQS: 0.0504
- area with substrate LNLYFQS: 0.0501
- area with substrate MNLYFQS: 0.0686
- area with substrate NNLYFQS: 0.0527
- area with substrate PNLYFQS: 0.0608
- area with substrate QNLYFQS: 0.06
- area with substrate SNLYFQS: 0.0593
- area with substrate VNLYFQS: 0.0468
- area with substrate WNLYFQS: 0.057

Variant: MGESLFKGPRDYNPISSSICHLTNESDGHTTSLYGIGFGPFIITNKHLFRRNNGTLVVQSLHGVFKVKDTTTLQQHLVDGRDMIIIRMPKDFPPFPQKLKFREPQREERICLVTTNFQTKSMSSMVSDTSCTFPSGDGIFWKHWIQTKDGQCGSPLVSTRDGFIVGIHSASNFTNTNNYFTSVPKNFMELLTNQEAQQWFSGWRLNADSVLWGGHKVFMVKPEEPFQPVKEATQL [V200F]
- area with substrate CNLYFQS: 0.0575
- area with substrate HNLYFQS: 0.0528
- area with substrate INLYFQS: 0.0565
- area with substrate NNLYFQS: 0.0723
- area with substrate QNLYFQS: 0.0987
- area with substrate RNLYFQS: 0.0671
- area with substrate SNLYFQS: 0.0598
- area with substrate TNLYFQS: 0.0535
- area with substrate YNLYFQS: 0.0729

Variant: MGESLFKGPRDYNPISSSICHLTNESDGHTTSLYGIGFGPFIITNKHLFRRNNGTLVVQSLHGVFKVKDTTTLQQHLVDGRDMIIIRMPKDFPPFPQKLKFREPQREERICLVTTNFQTKSMSSMVSDTSCTFPSGDGIFWKHWIQTKDGQCGSPLVSTRDGFIVGIHSASNFTNTNNYFTSVPKNFMELLTNQEAQQWYSGWRLNADSVLWGGHKVFMVKPEEPFQPVKEATQL [V200Y]
- area with substrate CNLYFQS: 0.0737
- area with substrate DNLYFQS: 0.044
- area with substrate GNLYFQS: 0.0627
- area with substrate HNLYFQS: 0.0675
- area with substrate LNLYFQS: 0.0614
- area with substrate NNLYFQS: 0.0674
- area with substrate SNLYFQS: 0.0643
- area with substrate TNLYFQS: 0.0572
- area with substrate WNLYFQS: 0.0829
- area with substrate YNLYFQS: 0.0587

Variant: MGESLFKGPRDYNPISSSICHLTNESDGHTTSLYGIGFGPFIITNKHLFRRNNGTLVVQSLHGVFKVKDTTTLQQHLVDGRDMIIIRMPKDFPPFPQKLKFREPQREERICLVTTNFQTKSMSSMVSDTSCTFPSGDGIFWKHWIQTKDGQCGSPLVSTRDGFIVGIHSASNFTNTNNYFTSVPKNFMELLTNQEAQQWVSGWILNADSVLWGGHKVFMVKPEEPFQPVKEATQL [R204I]
- area with substrate CNLYFQS: 0.0655
- area with substrate DNLYFQS: 0.0689
- area with substrate FNLYFQS: 0.0735
- area with substrate GNLYFQS: 0.0602
- area with substrate HNLYFQS: 0.0603
- area with substrate INLYFQS: 0.0651
- area with substrate KNLYFQS: 0.0695
- area with substrate LNLYFQS: 0.0714
- area with substrate MNLYFQS: 0.0728
- area with substrate NNLYFQS: 0.0587
- area with substrate PNLYFQS: 0.0641
- area with substrate QNLYFQS: 0.0498
- area with substrate SNLYFQS: 0.0678
- area with substrate TNLYFQS: 0.0602
- area with substrate VNLYFQS: 0.069
- area with substrate WNLYFQS: 0.0576
- area with substrate YNLYFQS: 0.0599

Variant: MGESLFKGPRDYNPISSSICHLTNESDGHTTSLYGIGFGPFIITNKHLFRRNNGTLVVQSLHGVFKVKDTTTLQQHLVDGRDMIIIRMPKDFPPFPQKLKFREPQREERICLVTTNFQTKSMSSMVSDTSCTFPSGDGIFWKHWIQTKDGQCGSPLVSTRDGFIVGIHSASNFTNTNNYFTSVPKNFMELLTNQEAQQWVDGWRLNADSVLWGGHKVFMVKPEEPFQPVKEATQL [S201D]
- area with substrate CNLYFQS: 0.063
- area with substrate DNLYFQS: 0.0611
- area with substrate GNLYFQS: 0.0644
- area with substrate INLYFQS: 0.0642
- area with substrate KNLYFQS: 0.0441
- area with substrate MNLYFQS: 0.0333
- area with substrate NNLYFQS: 0.0564
- area with substrate SNLYFQS: 0.0621
- area with substrate TNLYFQS: 0.0633
- area with substrate WNLYFQS: 0.0485
- area with substrate YNLYFQS: 0.0616

Variant: MGESLFKGPRDYNPISSSICHLTNESDGHTTSLYGIGFGPFIITNKHLFRRNNGTLVVQSLHGVFKVKDTTTLQQHLVDGRDMIIIRMPKDFPPFPQKLKFREPQREERICLVTTNFQTKSMSSMVSDTSCTFPSGDGIFWKHWIQTKDGQCGSPLVSTRDGFIVGIHSASNFTNTNNYFTSVPKNFMELLTNQEAQQWVSGWRLFADSVLWGGHKVFMVKPEEPFQPVKEATQL [N206F]
- area with substrate CNLYFQS: 0.0636
- area with substrate DNLYFQS: 0.0709
- area with substrate HNLYFQS: 0.058
- area with substrate INLYFQS: 0.0513
- area with substrate KNLYFQS: 0.0719
- area with substrate LNLYFQS: 0.0507
- area with substrate NNLYFQS: 0.0645
- area with substrate PNLYFQS: 0.064
- area with substrate TNLYFQS: 0.0578
- area with substrate WNLYFQS: 0.0509
- area with substrate YNLYFQS: 0.0391

Variant: MGESLFKGPRDYNPISSSICHLTNESDGHTTSLYGIGFGPFIITNKHLFRRNNGTLVVQSLHGVFKVKDTTTLQQHLVDGRDMIIIRMPKDFPPFPQKLKFREPQREERICLVTTNFQTKSMSSMVSDTSCTFPSGDGIFWKHWIQTKDGQCGSPLVSTRDGFIVGIHSASNFTNTNNYFTSVPKNFMELLTNQEAQQWVSGWRLNSDSVLWGGHKVFMVKPEEPFQPVKEATQL [A207S]
- area with substrate CNLYFQS: 0.063
- area with substrate DNLYFQS: 0.101
- area with substrate FNLYFQS: 0.0724
- area with substrate HNLYFQS: 0.0708
- area with substrate INLYFQS: 0.0663
- area with substrate KNLYFQS: 0.0531
- area with substrate LNLYFQS: 0.0614
- area with substrate MNLYFQS: 0.0675
- area with substrate NNLYFQS: 0.0803
- area with substrate PNLYFQS: 0.0494
- area with substrate SNLYFQS: 0.0814
- area with substrate TNLYFQS: 0.0683
- area with substrate VNLYFQS: 0.0477
- area with substrate WNLYFQS: 0.052
